PubChem BioAssay AID488969 (Vanderbilt High Throughput Screening Facility, 2010)
The full ranking holds about 110,000 compounds; the median of “z-score” is about -0.1, and the highest 2% start at about 2. The list shows a part of the results. Calls of active or inactive are those of the source.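 Rule for the calls: active = z-score in the third read window above 3 or below -3; inactive = the rest.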

These molecules were tested against Metabotropic glutamate receptor 8 (Rattus norvegicus) (UniProt P70579) (assay: rat mGluR8 modulators via GIRK flux, primary screen, cell-based, thallium flux, HTS (AID 488969)). Conditions: HEK293 rat mGluR8, GIRK (G protein-gated inwardly rectifying potassium channel) thallium flux, FluoZin2; at 10 µM; stronger effect = higher value; submaximal glutamate (EC20) added with thallium.
Chain of UniProt P70579 (P70579 whole entry, looked up): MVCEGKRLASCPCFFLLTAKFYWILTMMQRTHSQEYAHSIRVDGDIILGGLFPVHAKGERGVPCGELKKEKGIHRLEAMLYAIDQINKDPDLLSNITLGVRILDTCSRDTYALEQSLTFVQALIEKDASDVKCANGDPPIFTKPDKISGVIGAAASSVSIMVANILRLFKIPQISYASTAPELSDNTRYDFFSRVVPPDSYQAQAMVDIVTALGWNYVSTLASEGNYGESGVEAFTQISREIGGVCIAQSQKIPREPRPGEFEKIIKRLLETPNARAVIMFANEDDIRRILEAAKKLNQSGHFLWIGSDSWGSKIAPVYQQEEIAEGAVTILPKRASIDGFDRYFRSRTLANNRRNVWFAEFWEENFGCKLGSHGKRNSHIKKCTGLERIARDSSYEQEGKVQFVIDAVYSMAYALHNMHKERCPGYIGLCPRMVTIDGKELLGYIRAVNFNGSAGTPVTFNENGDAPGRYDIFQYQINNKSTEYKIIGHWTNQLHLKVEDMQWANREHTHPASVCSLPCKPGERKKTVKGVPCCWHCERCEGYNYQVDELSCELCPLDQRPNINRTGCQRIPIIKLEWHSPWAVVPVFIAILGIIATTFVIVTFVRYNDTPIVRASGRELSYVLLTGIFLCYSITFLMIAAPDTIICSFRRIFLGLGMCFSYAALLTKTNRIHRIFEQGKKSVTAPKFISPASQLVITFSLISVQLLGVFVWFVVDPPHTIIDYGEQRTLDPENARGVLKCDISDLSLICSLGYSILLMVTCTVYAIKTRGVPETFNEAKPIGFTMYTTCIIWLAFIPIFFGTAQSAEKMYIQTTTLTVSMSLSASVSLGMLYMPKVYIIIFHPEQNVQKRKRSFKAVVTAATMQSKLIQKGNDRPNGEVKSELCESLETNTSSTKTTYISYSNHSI
`CCCNC(=S)NC1CC2CCC(C1)N2Cc1ccccc1` (stereo unspecified) showed a z-score of -0.0426.
Molecule `COCCNC(=O)C(C)N1c2cccc3cccc(c23)S1(=O)=O` (stereo unspecified) has a z-score of -0.117.
`Cc1cc(C)nc(NS(=O)(=O)c2ccc(NC(=S)NC(=O)C(C)C)cc2)n1` was tested, and the z-score was -0.0841.
`Cc1ccc(OCC(=O)N/N=C/c2cn[nH]c2-c2ccc(Cl)c(Cl)c2)cc1` showed a z-score of 0.00282.
With `Cc1ccc(NC(=O)COC(=O)CNC(=O)c2ccc3ccccc3c2)c([N+](=O)[O-])c1` the z-score was -0.387.
`O=C1C(Cl)=C(NCCc2ccccc2)C(=O)N1CCc1ccccc1` gave a z-score of -0.229.
`COc1ccc(-n2cc(C(=O)O)c3ccccc3c2=O)cc1` gave a z-score of 2.28.
With `CC1=C(C(=O)NC2CCCC(C)C2C)C2(CCCCC2)OC1=O` (stereo unspecified) the z-score was -0.124.
For `O=C(CCCc1nc2ccccc2s1)Nc1nccs1`, the z-score was -1.01.
`Cc1ccc(CSc2ccc(-c3cccs3)nn2)cc1` gave a z-score of -0.133.
Work on `COCCCN1C(=O)c2ccccc2C1C(=O)NC1CCCCCC1` (stereo unspecified) yielded a z-score of 0.0327.
`Cc1oc(CSCC2CCCO2)cc1C(=O)O` (stereo unspecified) was tested, and the z-score was 0.173.
Molecule `O=C(OCC(=O)c1c[nH]c2ccccc12)c1cc2ccccc2cc1O` has a z-score of -0.0971.
`O=[N+]([O-])c1cccc(C2Nc3cccc4cccc(c34)N2)c1` showed a z-score of -0.0194.
`COc1ccc(N(CC(=O)NC2CCCCCC2)S(=O)(=O)c2c(C)nn(C)c2C)cc1` was tested, and the z-score was 0.268.
`Nc1cc2sc(-c3ccc(C(=O)O)cc3)nc2cc1Cl` was tested, and the z-score was -0.21.
Work on `Cc1ccc2c(n1)sc1c(-c3ccc(Br)cc3)c(C#N)c(N)nc12` yielded a z-score of -0.164.
With `CC1(C)CC(=O)C2=C(C1)OC(N)=C(C#N)C21CCC2(CC1)OCCO2` the z-score was -0.25.
`CC1=C(C(=O)OC(C)C)C(c2ccncc2)n2ncnc2N1` (stereo unspecified) gave a z-score of -0.572.
In the case of `CCOC(=O)N1CCN(C2CC(=O)N(c3ccc(Oc4ccccc4)cc3)C2=O)CC1` (stereo unspecified), the z-score is reported as 0.281.
In the case of `C=CCNc1nnc(SC2CC(=O)N(c3ccc(OC)cc3)C2=O)s1` (stereo unspecified), the z-score is reported as 0.794.
`COc1cccc(NC(=O)CSc2nnc(-c3cc(C)n(-c4ccccc4)c3C)o2)c1` showed a z-score of -0.0485.
`CCCCCNC(=O)CN(c1ccc2c(c1)OCO2)S(C)(=O)=O` gave a z-score of -0.303.
In the case of `CCSc1ccccc1C(=O)Nc1cccnc1`, the z-score is reported as active: -3.72.
Work on `Cc1ccccc1N1C(=O)C(Oc2ccc(Cl)cc2)C1CNCCCOC(C)C` (stereo unspecified) yielded a z-score of 2.95.
Molecule `CC(C)[C@H](NC(=O)OCc1ccccc1)C(=O)OCC(=O)NC1CCCCC1` has a z-score of -0.184.
Work on `O=C(CCC(=O)N1CCc2ccccc21)Nc1ccccc1` yielded a z-score of 0.0615.
Work on `O=C(NCC(c1cccnc1)N1CCN(c2ccccc2)CC1)OCc1ccccc1` (stereo unspecified) yielded a z-score of -0.479.
For `Cc1cc(C)c(S(=O)(=O)N2CCCCC2)c(C)c1-n1ncnn1`, the z-score was 0.237.
Molecule `COc1ccc(NC(=O)C2CCN(c3cc(C)nc(-c4ccccc4)n3)CC2)cc1` has a z-score of -0.351.
`Cc1ccccc1C(=O)Nc1nncs1` gave a z-score of -0.0319.
Work on `COC(=O)c1sc(S(=O)(=O)N2CCC(C(N)=O)CC2)c(C(=O)OC)c1C` yielded a z-score of -0.0642.
`COc1ccc(N(C(=O)c2cccc(OC)c2OC)C2C=CS(=O)(=O)C2)cc1` (stereo unspecified) gave a z-score of -0.0517.
`c1ccc(-c2nc(N3CCOCC3)c3ccccc3n2)nc1` showed a z-score of 0.178.
`O=C(CCn1nc(-c2ccc(Cl)cc2)ccc1=O)NCc1cccnc1` showed a z-score of -0.0692.
In the case of `CN(C)c1ccnc(SCc2ccccc2Cl)c1C#N`, the z-score is reported as 0.0449.
`Cc1ccc(/C(O)=C2\C(=O)C(=O)N(CC(C)O)C2c2ccc(N(C)C)cc2)cc1` (stereo unspecified) gave a z-score of -0.0674.
Work on `CN(C)CC(=O)Nc1ccc(S(N)(=O)=O)cc1` yielded a z-score of 0.088.
Work on `FC(F)(F)c1nc(-c2cccs2)ncc1-c1nnnn1-c1ccc(Cl)cc1` yielded a z-score of -0.147.
With `COc1ccc(Cl)cc1NC(=O)/C=C\C(=O)O` the z-score was -0.076.
With `CC(=O)c1cccc(NC(=O)CSC(=O)c2ccccc2)c1` the z-score was 0.0943.
With `N#Cc1ccc(Oc2ccc(-c3nc4ccccc4nc3-c3ccccc3)cc2)cc1C#N` the z-score was 0.135.
Molecule `Cc1onc(-c2c(F)cccc2Cl)c1C(=O)Nc1nc2ccccc2[nH]1` has a z-score of -0.188.
With `O=C(C1CCCN1S(=O)(=O)c1cccc2cccnc12)N1CCc2ccccc21` (stereo unspecified) the z-score was 2.97.
`CCN(CC)C(=O)COc1ccc(-c2nnc(N3CCCCC3)c3ccccc23)cc1` gave a z-score of -1.21.
`CCCn1c(=NC(=O)c2ccco2)c(C(=O)OCC)cc2c(=O)n3ccccc3nc21` showed a z-score of -0.278.
With `CC(C)Sc1nc2c(c(=O)[nH]c(=O)n2C)n1Cc1ccc(Cl)cc1` the z-score was -0.372.
`COCCNCCOc1ccccc1-c1ccccc1` was tested, and the z-score was active: 3.67.
With `CC(=O)c1cccc(NC(=O)c2cc(-c3ccc(C)cc3)on2)c1` the z-score was 0.209.
`Cc1ncc(S(=O)(=O)c2ccc(Cl)cc2)c(-c2ccccc2)n1` showed a z-score of -0.0458.
For `COc1ccc(N2CCN(C(=O)CN3C(=O)c4ccccc4S3(=O)=O)CC2)cc1`, the z-score was -0.593.
For `CCC(CC)C(=O)N1CC(=O)Nc2ccc(Br)cc2C1c1ccccc1` (stereo unspecified), the z-score was -0.895.
With `O=C(NC(=S)NCCN1CCOCC1)c1ccccc1Cl` the z-score was -0.177.
With `Cc1ccc(C(=O)Oc2cccc(NC(=O)c3ccco3)c2)cc1S(=O)(=O)N1CCC(C)CC1` the z-score was -0.231.
With `COC(=O)CN1C(=S)N(c2ccc(Cl)cc2)C(=O)C1CC(=O)Nc1ccccc1` (stereo unspecified) the z-score was -0.188.
`O=C(c1ccc(COc2c(F)c(F)c(F)c(F)c2F)o1)N1CCN(Cc2ccc3c(c2)OCO3)CC1` was tested, and the z-score was 0.171.
In the case of `Cc1ccc(C(=O)N/C(=C\c2sccc2C)C(=O)NCc2ccncc2)cc1`, the z-score is reported as 0.317.
In the case of `Fc1ccc(CNC(=S)Nc2cccc(Cl)c2)cc1`, the z-score is reported as active: 5.18.
With `CN(Cc1cc(=O)n2ccsc2n1)c1ccccc1` the z-score was 0.269.
With `Cc1cc(C(=O)CSc2n[nH]c(N)n2)c(C)n1-c1cccc(F)c1` the z-score was -1.69.
`CC1CN/C(=C\C(=O)c2ccccc2)C(=O)N1` (stereo unspecified) was tested, and the z-score was -0.329.
`CNc1cc([N+](=O)[O-])ccc1N/C=C/C(=O)c1cccs1` was tested, and the z-score was -0.398.
In the case of `Cc1nc(S(=O)(=O)c2cccc(Cl)c2)nc2c1CCC2`, the z-score is reported as -0.17.
For `CC(C)(C)c1cc(C(=O)NCc2ccco2)ccn1`, the z-score was 1.2.
`CN(C)CCCNc1ncnc2c1cnn2-c1ccccc1` gave a z-score of 0.0262.
Work on `CC(C)C(=O)Nc1cc(=O)[nH]c2ncnn12` yielded a z-score of 0.254.
`CCCc1nc(SCC(=O)c2ccccc2)c2c(=O)n(C)c(=O)n(C)c2n1` showed a z-score of 0.819.
`CC(=O)c1cccc(N/C=C\c2nnnn2-c2ccc(F)cc2)c1` showed a z-score of -0.335.
Molecule `Cc1c(/C=C/C(=O)c2cccs2)cnn1C` has a z-score of 0.118.
In the case of `C=CCNC(=O)/C(C#N)=C/c1c(C)nn(-c2ccc(Cl)cc2)c1Cl`, the z-score is reported as -0.224.
Work on `Cc1ccc2nc(SCC(=O)N3CCOCC3)[nH]c2c1` yielded a z-score of 0.844.
Molecule `CCn1nc(NC(=O)c2ccncc2)c2cc3ccccc3nc21` has a z-score of -0.219.
With `Cn1c(C(=O)N2CCCc3ccccc32)cc2c(=O)n3ccccc3nc21` the z-score was -1.01.
In the case of `COCc1cc(/C=N\NC(=O)Cc2ccc(Cl)cc2)ccc1OC`, the z-score is reported as -0.253.
`O=C(Nc1ccc(Cl)cc1)OCc1ccccn1` gave a z-score of 0.0566.
`O=C(Nc1ccccc1N1CCOCC1)C1CCN(S(=O)(=O)c2ccc(F)cc2)CC1` was tested, and the z-score was 0.553.
Molecule `O=C(CSc1nc2ccccc2s1)NCc1ccc2c(c1)OCO2` has a z-score of 0.397.
With `O=C(NCc1ccc(F)cc1)c1cccc(S(=O)(=O)N2CCCC2)c1` the z-score was 0.497.
Molecule `O=C(/C=C/c1ccco1)NC(=S)Nc1cccc(-c2nc3ccccc3o2)c1` has a z-score of 0.276.
Molecule `COc1ccc(C)cc1S(=O)(=O)NC1CCCC1` has a z-score of -0.216.
`Cc1occc1-c1nnc(SCC(=O)c2c[nH]c3ccccc23)n1C` showed a z-score of -0.0265.
Work on `O=C(C[n+]1cc(-c2ccccc2)n2c1CCC2)N1c2ccccc2Sc2ccccc21` yielded a z-score of -0.288.
Work on `O=S(=O)(c1ccc(-c2csc(=Nc3ccccc3)n2CCCN2CCOCC2)cc1)N1CCOCC1` yielded a z-score of -0.35.
Work on `COc1cccc(CNC(=O)CSCc2cnn(-c3ccccc3)c2-n2cccc2)c1` yielded a z-score of 0.118.
In the case of `C=CCNC(=O)CCCOc1cc(C)ccc1C`, the z-score is reported as 0.0352.
In the case of `CC(C)n1c(SCC(N)=O)nc2c1c(=O)n(C)c(=O)n2C`, the z-score is reported as -0.0906.
For `O=c1[nH]c(C(F)(F)F)nc2ccccc12`, the z-score was -0.11.
For `Cc1ccc(NC(=O)Cc2ccc([N+](=O)[O-])cc2)c(Br)c1`, the z-score was 0.513.
For `Cc1ccc2c(c1)c1c(n2CC(O)Cn2c(C)nc3ccccc32)CCCC1` (stereo unspecified), the z-score was -0.427.
Work on `COc1ccc(OCC(=O)N2CCN(C(=O)c3ccco3)CC2)cc1` yielded a z-score of 0.0762.
`S=C(NCCN1CCOCC1)Nc1ccc(Cl)cc1Cl` showed a z-score of -1.12.
`Cc1ccc(C2C3=C(CC(C)(C)CC3=O)Nc3onc(C)c32)cc1` (stereo unspecified) was tested, and the z-score was 0.00867.
Work on `COc1ccccc1N1CCN(C(=O)Cn2nc(C(F)(F)F)c3c2CCC3)CC1` yielded a z-score of 0.25.
`CCOC(=O)CCc1c(C)c2ccc(OCC(=O)OC(C)C)cc2oc1=O` gave a z-score of 0.293.
In the case of `COc1ccc(-c2noc(CN3CCN(c4ccccc4F)CC3)n2)cc1OC`, the z-score is reported as -0.343.
In the case of `c1cc(-c2noc(-c3ccc4c(c3)OCO4)n2)ccn1`, the z-score is reported as -0.241.
`O=C(Nc1c(C(=O)NCc2ccco2)cnn1-c1ccccc1)c1ccc(F)cc1` showed a z-score of -2.63.
Work on `CN1CCN(CC(=O)Nc2cc(N3CCOCC3)ccc2[N+](=O)[O-])CC1` yielded a z-score of -0.389.
For `CCOc1ccc(N=C(NN)c2ccc3ccccc3n2)cc1`, the z-score was -0.116.
`Cc1c(Cl)cccc1NC(=O)CCCN1C(=O)CCC1=O` showed a z-score of 0.5.
In the case of `COc1ccc(NC(=O)Cc2ccccc2)cc1`, the z-score is reported as 0.2.
In the case of `O=C(c1ccco1)N1CCN(c2c(-c3ccccc3)c3cc(Cl)ccc3[nH]c2=O)CC1`, the z-score is reported as -0.0972.
With `COc1ccc(-n2c(C)nc3cc(C(=O)NCc4ccco4)ccc32)cc1` the z-score was 2.54.
In the case of `COc1ccc(C2C(Oc3ccccc3)C(=O)N2c2cc(C)ccc2C)cc1OC` (stereo unspecified), the z-score is reported as -0.22.
`COC(=O)C1CC(O)CN1C(=O)c1ccco1` (stereo unspecified) showed a z-score of 0.107.
Work on `Cc1ccc(C)c(N(CC(=O)N(C)C)S(C)(=O)=O)c1` yielded a z-score of -0.161.
With `C/C(=N\NC(=S)NCCc1ccccc1)c1cccs1` the z-score was active: 3.65.
For `O=C1[C@@H]2[C@H](C(=O)N1Cc1ccco1)[C@H]1C=C[C@@H]2C1`, the z-score was -0.0939.
In the case of `C=C(C)c1cccc(C(C)(C)NC(=O)Nc2ccc(C)cn2)c1`, the z-score is reported as -0.34.
Work on `CCOc1ccc(S(=O)(=O)N(CC(=O)NC2CCCCC2C)Cc2ccco2)cc1` (stereo unspecified) yielded a z-score of 0.273.
`CCNC(=O)C/C(C)=N/NC(=O)C1CCCCC1` was tested, and the z-score was -0.417.
